Results: PubChem BioAssay AID493208 (National Center for Advancing Translational Sciences (NCATS), 2011)
Screen size: about 44,000 compounds; about 340 (0.77%) were called active. Not shown: some 5% with an inconclusive outcome. Calls follow the shape of the dose curve; as a rule, active = well fitted inhibition curve with a large enough effect; inconclusive = small, poorly fitted or top-dose-only effect; inactive = flat fitted curve, though single readings scatter. Some of the results follow.

Test: Acumen qHTS Assay for Inhibitors of the mTORC1 Signaling Pathway in MEF (Tsc2-/-, p53-/-) Cells: Sytravon;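 also: plate controls were DMSO for no effect and rapamycin for full effect; nearly all actives have a fitted effect of over 50% in size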
Settings: phospho-rpS6 immunofluorescence/PI, 24 h; series mostly up to 38.3 µM; activity change, negative = inhibition: at the top concentration
Outline: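 Read-out: phospho-S6 Alexa-488 intensity over PI intensity per well, scored as % active cells using thresholds from rapamycin (7.5 nM) and DMSO controls. Tsc2-/-, p53-/- MEFs exposed to compound for 24 h; PI cell count recorded as viability.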

Activity change, negative = inhibition, inactive:
Cc1ccc(Cn2c(SCc3ccc(C(=O)N4CCCCCC4)cc3)nc3ccncc32)cc1 1.08%
Cc1cccc(NC(=O)c2sc(-n3nc(C)c(Cc4ccc5c(c4)OCO5)c3C)nc2C)c1C -5.61%
COc1cccc(NC(=O)N2CCN3CCCCC3C2)c1 (centres undefined) -2.45%
CCCOC(=O)CSc1ncnc2sc3c(c12)CCC(C)C3 (centres undefined) -29.1%
COc1ccc(-c2cc(C)no2)cc1S(=O)(=O)NC(C)C 2.32%
COc1ccc(CN2CCc3nc(SCC(=O)Nc4cc(C)cc(C)c4)[nH]c(=O)c3C2)cc1 -9.37%
COc1ccc(-c2noc(Cn3c(=O)c4ccccc4n(CC(=O)Nc4cccc(OC)c4)c3=O)n2)cc1 -7.61%
COc1cc(OC)cc(N2C(=O)N(CC(=O)c3ccc(F)cc3)c3ccccc3S2(=O)=O)c1 1.32%
COc1ccc(-c2noc(CSc3nnc(C)n3-c3ccc(OC)cc3)n2)cc1 -3.29%
COc1ccccc1NC(=O)c1sc2nc(N3CCOCC3)c3c(c2c1N)CC(C)(C)OC3 6.2%
Cc1ccc(NC(=O)CSc2ncc3c(n2)-c2ccc(Cl)cc2N(C)S3(=O)=O)cc1F -7.6%
CCOC(=O)c1ccc(NC(=O)c2oc(=O)c3ccccc3c2-c2ccccc2)cc1 0.0414%
CCCCOC(=O)c1ccc(NC(=O)Cn2nnc3sc4c(c3c2=O)CCCC4)cc1 2.53%
O=C(NCc1cccs1)c1ccc(Cn2c(SCc3cccc(F)c3)nc3cccnc32)cc1 -7.57%
CCC(=O)N1CCc2cc(S(=O)(=O)CCC(=O)NCc3ccc(C)cc3)ccc21 0.636%
COc1ccccc1-c1nc2c(c(SCC(=O)Nc3c(C)cc(C)cc3C)n1)Cc1c(CO)cnc(C)c1O2 -2.5%
CCc1cccc(NC(=O)C(Cc2ccccc2)NS(=O)(=O)c2ccc3c(c2)oc(=O)n3C)c1 (centres undefined) -11.9%
CCOC(=O)c1c(NC(=O)c2cc3nc(-c4ccc(OC)cc4)cc(C(F)(F)F)n3n2)sc2c1CCC(C)C2 (centres undefined) -1.14%
Cc1ccc(N2C(=O)N(CC(=O)C(C)(C)C)c3ccccc3S2(=O)=O)cc1C -0.749%
CCc1cccc(NC(=O)c2cc3c(=O)n(Cc4ccc(OC)cc4)ccc3nc2C)c1 -9.71%
CCCSc1nnc2c(n1)OC(c1sccc1C)Nc1ccccc1-2 (centres undefined) 3.02%
CCOc1ccc(-c2cc(C(=O)N3CCN(S(=O)(=O)c4cc(Cl)ccc4OC)CC3)[nH]n2)cc1 0%
Cc1cc2oc(C(=O)N(Cc3ccccc3F)C3CCS(=O)(=O)C3)c(C)c2cc1Cl (centres undefined) -16.5%
Cc1ccc(C)c(N2CCN(C(=O)Cn3ncc4ccsc4c3=O)CC2)c1 -3.34%
CCOC(=O)c1ccc(NC(=O)c2c(N3CCCC3=O)c3cc(OC)ccc3n2C)cc1 -5.07%
Cc1c(Cl)cccc1NC(=O)CN1C(=O)COc2ccc(S(=O)(=O)N3CCOCC3)cc21 1.01%
CC1=C(C(=O)OCC2CCCCC2)C(c2cccc(Cl)c2Cl)CC(=O)N1 (centres undefined) -12.2%
CCc1ccc(Cn2c(CNS(=O)(=O)c3ccc(F)c(Cl)c3)nc3cccnc32)cc1 0.326%
CCOc1ccc(C(=O)c2oc3ccccc3c2NC(=O)Cc2coc3cc(C)cc(C)c23)cc1 -0.255%
CC(=O)N1CCCC1c1nc2ccccc2n1Cc1ccccc1 (centres undefined) -0.0989%
COc1ccccc1N1CCN(S(=O)(=O)CCNC(=O)COc2ccccc2F)CC1 -9.89%
Cc1ccc(CNc2ncccc2-c2nc(-c3ccc(Cl)cc3)no2)cc1 0.149%
O=C(CCCn1c(=O)c2sccc2n(Cc2ccc(Cl)cc2)c1=O)NCc1ccc2c(c1)OCO2 -14.7%
COc1ccc(Br)cc1CNC(=O)CCc1cn(Cc2ccc(C)cc2)c2ccccc12 -17.8%
CCOC(=O)c1ccccc1NC(=O)c1cc2c(s1)-c1ccccc1SC2 0.624%
CC1=C(c2ccc(Cl)cc2)S(=O)(=O)N=C1N1CCC(C(=O)NCCc2ccco2)CC1 -1.4%
COC(=O)c1sccc1S(=O)(=O)N1CCN(c2ccc(Cl)cc2)CC1 -8.83%
Cc1scc(CN2CCN(c3ccc(F)cc3)CC2)c1C -11.6%
CC(C)c1ccc(NC(=O)CN2C(=O)CSc3ccc(S(=O)(=O)N4CCCC4)cc32)cc1 0.126%
Cc1ccc(-c2nc(S(=O)(=O)c3ccccc3)c(SCC(=O)NC3CCCCC3)o2)cc1 8.02%
CC(C)CC(NC(=O)C1CCCCC1)C(=O)Nc1cccc(C(F)(F)F)c1 (centres undefined) -1.46%
Cc1ccc(Cl)cc1N1CCN(C(=O)c2nn(C)c3c2CS(=O)(=O)c2ccccc2-3)CC1 6.74%
Cc1ccc(Cl)cc1NC(=O)c1cc(CN2CCCC2)on1 -0.18%
Cc1cccc(N2CCN(C(=O)c3cccn3-c3nnc(N4CCCCC4)s3)CC2)c1C -8.31%
CCc1ccc(NC(=O)c2ccc(NS(=O)(=O)c3c(C)noc3C)cc2)cc1 -3.46%
CCc1cccc(C)c1NC(=O)c1cc(S(=O)(=O)N2CCCCCC2)cn1C 0.323%
COc1ccc(-c2cc(C(F)(F)F)nc(SCCC(=O)Nc3cccc(OC)c3)n2)cc1 -10.3%
O=C(NC1CC1)c1ccc(Cn2c(SCc3ccc(F)cc3)nc3cccnc32)cc1 0%
O=C(COc1ccc(F)cc1)Nc1ccc(S(=O)(=O)N(Cc2ccccc2)c2ccccc2)cc1 -3.83%
CCc1ccc(CNC(=O)c2sc3nc[nH]c(=O)c3c2C)cc1 -0.181%
CCCNc1ncnc2c1c(-c1ccccc1)cn2-c1ccc(OCC)cc1 1.97%
COc1ccc(NC(=O)CCn2c(-c3ccc(F)cc3)cc(C(C)=O)c2C)c(OC)c1 -4.34%
O=c1cc(CSc2ccccc2)[nH]c2ccc(F)cc12 -12.2%
COc1ccc(-c2cc(C(C)=O)c(C)n2CCC(=O)Nc2ccc(C)c(Cl)c2)cc1 0.654%
CCCOc1ccc(C(=O)Nc2ccc(-c3cc4ccccc4oc3=O)c(C)c2)cc1 -5.03%
CCc1ccc(Nc2nnc(-c3cc4cc(OC)ccc4oc3=O)s2)cc1 -0.264%
COc1ccc(OC)c(CNc2ncnc3c2nc2n3CCCC2)c1 2.04%
CCN(C(=O)Cc1c(C(=O)O)c(C)cn1C)c1cccc(Cl)c1 -0.659%
CCc1c(C)nc(SCc2nc(-c3ccccc3C)no2)[nH]c1=O -8.32%
CCOc1ccc(S(=O)(=O)c2c(C(=O)c3ccc(C)c(C)c3)cnc3ccccc23)cc1 0.795%
Cc1ccc(CNC(=O)CCc2nnc3n(C)c(=O)c4sccc4n23)cc1 -0.0529%
COc1cc(NC(=O)C(NS(=O)(=O)c2ccc3c(c2)CCCC(=O)N3)C(C)C)cc(OC)c1 (centres undefined) 1.96%
CC(=O)Nc1ccc(Nc2c(CCC(C)C)c(C)c(C#N)c3nc4ccccc4n23)cc1 -15.4%
Cc1ccccc1C(=O)Nc1nnc(S(=O)(=O)N(C)c2ccc(Cl)cc2)s1 -16.1%
COC(=O)c1sccc1S(=O)(=O)N(CC(=O)Nc1ccc(C)c(F)c1)c1ccc(C)c(C)c1 -7.17%
Cc1ccccc1Cn1c(=O)n(CCc2ccccc2)c(=O)c2sc3ccccc3c21 -9.06%
CCc1ccc(C(=O)NC2=NC(c3cc(OC)ccc3OC)CC(=O)N2)cc1 (centres undefined) 1.46%
COC(=O)c1ccc(-c2nc(-c3ccc(OC)c(OC)c3)no2)cc1 -9.15%
CC(=O)Nc1ccc(NC(=O)C(c2ccccc2)N2Cc3ccccc3C2=O)cc1 (centres undefined) -7.82%
Cc1ccc(-c2nn(C)c(=O)c3ccccc23)cc1S(=O)(=O)NCCCN(C)C -2.76%
O=C(Nc1ccc(-c2nc3cc(NC(=O)c4ccc(Cl)cc4)ccc3o2)cc1)c1ccc(Cl)cc1 0.214%
COc1ccc(-c2cc(C(F)(F)F)n3nc(C(=O)Nc4sc5c(c4C(=O)OC(C)C)CCC(C)C5)cc3n2)cc1 (centres undefined) -5.11%
CCCN(CCC)C(=O)C1CCCN(S(=O)(=O)c2cc(Br)cc3c2N(C(=O)CC)CC3)C1 (centres undefined) -15.7%
CCc1ccc(-n2nc(CO)c(C(=O)NCc3cccnc3)n2)cc1 -6.93%
Cc1cc(C)cc(NC(=O)CCc2c(C)nc3c(c2C)c(=O)n(C)c(=O)n3C)c1 -18.4%
O=C(c1ccc2c(c1)N(Cc1ccc(Cl)cc1)C(=O)c1ccccc1S2(=O)=O)N1CCN(Cc2ccccc2)CC1 -0.62%
O=S(=O)(c1ccc(Br)cc1)c1nnn2c1nc(NCCc1ccccc1)c1sccc12 -5.42%
Cc1ccc(CCNC(=O)CCn2nc(-c3ccc(Cl)cc3)ccc2=O)cc1 15.6%
COc1ccc(N2C(=O)CCSC23C(=O)N(Cc2ccc(F)cc2)c2ccccc23)cc1 (centres undefined) -8.17%
Cc1ccc(-c2onc(C)c2C)cc1S(=O)(=O)Nc1cccc(Cl)c1C 9.43%
Cc1nc2ccc(S(=O)(=O)NC(C(=O)N3CCN(c4cccc(Cl)c4)CC3)C(C)C)cc2s1 (centres undefined) 2.64%
Cc1nc(N2CCCC2)ncc1C(=O)NCc1ccc(F)cc1 0%
Cc1cn2c(=O)c(S(=O)(=O)Nc3ccc(N4CCOCC4)cc3)c(C)nc2s1 -4.18%
COCCNC(=O)c1cnn(-c2cccc(C)c2)c1-n1cccc1 -11.1%
CC1CCN(S(=O)(=O)c2cc(C(=O)NCc3ccccc3)n(C)c2)CC1 -1.37%
COc1cc2ncc3c(-c4ccccc4)nn(CC(=O)NC4CCCCC4)c3c2cc1OC -3.32%
COc1ccc(C2=C(C)C(N3CCN(c4ccc(OC)cc4)CC3)=NS2(=O)=O)cc1 -8.7%
CN(C(=O)c1ccc2c(c1)N(Cc1ccc(F)cc1)C(=O)c1ccccc1S2(=O)=O)C1CCCCC1 -2.57%
COc1ccc(C(=O)NNc2ncnc3c2cnn3-c2ccc(C)cc2C)cc1 -3.5%
CCC(CC)C(=O)Nc1nnc(S(=O)(=O)N2c3ccccc3CC2C)s1 (centres undefined) 1.64%
Fc1cccc(-c2nnn3c2nc(NCc2ccc4c(c2)OCO4)c2ccccc23)c1 -9.85%
Cc1cc(N2CCC(C(=O)Nc3ccccc3Cl)CC2)n2nc(C)c(-c3ccc(Cl)cc3)c2n1 -0.431%
CCOC(=O)Cn1c(=O)oc2cc(S(=O)(=O)NC(C)c3ccccc3)ccc21 (centres undefined) -6.58%
CCc1ccc(CN(C(=O)Nc2cccc(Cl)c2)c2ccccn2)cc1 -2.71%
